Assay results: the supplement of paper PMC4967469
A lower IC50 marks a more sensitive line; a fit beyond the top or the lowest dose is shown as a bound at that dose. AUC, from the same fit, is the share of area under the viability curve across the 256-fold dose range; the more sensitive the line, the further below 1. For part of these data: Where the top dose is marked as inferred, it was calculated from the reported fits. For part of these data: An entry number marks a drug with two screens in the source, which often give different values.

Legend:
Experiment in all cases: Viability of human cancer cell lines after 72 h of drug (GDSC screen)
YM155 = compound: COCC[n+]1c2c(n(Cc3cnccn3)c1C)C(=O)c1ccccc1C2=O [YM155]; settings: top dose 5.12 µM
Procedure: (§1)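 Human cancer cell lines in 384-well plates, medium with 10% serum, drug for 72 h over a 256-fold dose range (nine 2-fold or five 4-fold steps up to the top dose). Adherent lines were fixed and stained with the nucleic acid dye Syto60, suspension lines read with resazurin; signal relative to control wells, capped at 0 and 100%. One two-parameter sigmoid per drug and line, fitted in a mixed model over all curves with the slope shared within a line.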

Docetaxel = compound: CC(=O)O[C@@]12CO[C@@H]1C[C@H](O)[C@@]1(C)C(=O)[C@H](O)C3=C(C)[C@@H](OC(=O)[C@H](O)[C@@H](NC(=O)OC(C)(C)C)c4ccccc4)C[C@@](O)([C@@H](OC(=O)c4ccccc4)[C@H]21)C3(C)C [Docetaxel]; settings: top dose 0.0125 µM
Procedure: as §1

JNJ-26854165 = compound: c1ccc2c(CCNc3ccc(Nc4ccncc4)cc3)c[nH]c2c1 [JNJ-26854165]; settings: top dose 10 µM
Procedure: as §1

CGP-60474 = compound: OCCCNc1cc(-c2ccnc(Nc3cccc(Cl)c3)n2)ccn1 [CGP-60474]; settings: top dose 0.256 µM; top dose inferred
Procedure: as §1

AMG-706 = compound: CC1(C)CNc2cc(NC(=O)c3cccnc3NCc3ccncc3)ccc21 [AMG-706]; settings: top dose 2 µM; top dose inferred
Procedure: as §1

JQ1 = compound: Cc1sc2c(c1C)C(c1ccc(Cl)cc1)=N[C@@H](CC(=O)OC(C)(C)C)c1nnc(C)n1-2 [JQ1]
Procedure: as §1

Belinostat = compound: O=C(/C=C/c1cccc(S(=O)(=O)Nc2ccccc2)c1)NO [Belinostat]; settings: top dose 20 µM; top dose inferred
Procedure: as §1

Cyclopamine = compound: CC1=C2C[C@H]3[C@@H](CC=C4C[C@@H](O)CC[C@@]43C)[C@@H]2CC[C@]12O[C@@H]1C[C@H](C)CN[C@H]1[C@H]2C [Cyclopamine]; settings: top dose 16 µM; top dose inferred
Procedure: as §1

JNK Inhibitor VIII = compound: CCOc1nc(NC(=O)Cc2cc(OC)ccc2OC)cc(N)c1C#N [JNK Inhibitor VIII]; settings: top dose 10 µM; top dose inferred
Procedure: as §1

FTI-277 = compound: COC(=O)[C@H](CCSC)NC(=O)c1ccc(NC[C@@H](N)CS)cc1-c1ccccc1 [FTI-277]; settings: top dose 1.024 µM; top dose inferred
Procedure: as §1

SB-715992 = compound: Cc1ccc(C(=O)N(CCCN)[C@@H](c2nc3cc(Cl)ccc3c(=O)n2Cc2ccccc2)C(C)C)cc1 [SB-715992]; settings: top dose 0.128 µM; top dose inferred
Procedure: as §1

OSI-906 = compound: C[C@]1(O)C[C@@H](c2nc(-c3ccc4ccc(-c5ccccc5)nc4c3)c3c(N)nccn32)C1 [OSI-906]; settings: top dose 2.56 µM; top dose inferred
Procedure: as §1

NSC-207895 = compound: CN1CCN(c2ccc([N+](=O)[O-])c3no[n+]([O-])c23)CC1 [NSC-207895]; settings: top dose 20 µM; top dose inferred
Procedure: as §1

[1] = top dose 1 µM, screen: GDSC drug entry 1218, top dose inferred
[2] = top dose 2.56 µM, screen: GDSC drug entry 163

Cell Line | AUC (YM155) | IC50 (YM155) | AUC (Docetaxel) | IC50 (Docetaxel) | AUC (JNJ-26854165) | IC50 (JNJ-26854165) | AUC (CGP-60474) | IC50 (CGP-60474) | AUC (AMG-706) | IC50 (AMG-706) | AUC (JQ1; [1]) | IC50 (JQ1; [1]) | AUC (JQ1; [2]) | IC50 (JQ1; [2]) | AUC (Belinostat) | IC50 (Belinostat) | AUC (Cyclopamine) | IC50 (Cyclopamine) | AUC (JNK Inhibitor VIII) | IC50 (JNK Inhibitor VIII) | AUC (FTI-277) | IC50 (FTI-277) | AUC (SB-715992) | IC50 (SB-715992) | AUC (OSI-906) | IC50 (OSI-906) | AUC (NSC-207895) | IC50 (NSC-207895)
CL-11 (large intestine, adherent) | 0.819 | 3380 nM | 0.981 | > 12.5 nM | 0.983 | > 10000 nM | 0.979 | > 256 nM | 0.987 | > 2000 nM | 0.986 | > 1000 nM | 0.965 | > 2560 nM | 0.667 | 3880 nM | 0.985 | > 16000 nM | 0.978 | > 10000 nM | 0.983 | > 1020 nM | 0.986 | > 128 nM | 0.983 | > 2560 nM | 0.98 | > 20000 nM
COLO-668 (small cell lung carcinoma, adherent) | 0.524 | 371 nM | 0.933 | > 12.5 nM | 0.933 | > 10000 nM | 0.892 | > 256 nM | 0.988 | > 2000 nM | 0.985 | > 1000 nM | 0.866 | 2280 nM | 0.499 | 1240 nM | 0.987 | > 16000 nM | 0.989 | > 10000 nM | 0.989 | > 1020 nM | 0.856 | 103 nM | 0.731 | 725 nM | 0.988 | > 20000 nM
CP66-MEL (melanoma, adherent) | 0.273 | 65.3 nM | 0.906 | > 12.5 nM | 0.972 | > 10000 nM | 0.863 | > 256 nM | 0.967 | > 2000 nM | 0.984 | > 1000 nM | 0.851 | 2410 nM | 0.657 | 3650 nM | 0.984 | > 16000 nM | 0.985 | > 10000 nM | 0.981 | > 1020 nM | 0.946 | > 128 nM | 0.822 | 1770 nM | 0.985 | > 20000 nM
CTV-1 (acute myeloid leukaemia, suspension) | 0.019 | < 20 nM | 0.897 | 10 nM | 0.773 | 3150 nM | 0.646 | 37.1 nM | 0.991 | > 2000 nM | 0.992 | > 1000 nM | 0.775 | 817 nM | 0.34 | 497 nM | 0.89 | 12100 nM | 0.992 | > 10000 nM | 0.991 | > 1020 nM | 0.471 | 6.77 nM | 0.979 | > 2560 nM | 0.953 | > 20000 nM
D-263MG (glioma, adherent) | 0.144 | < 20 nM | 0.598 | 1.54 nM | 0.874 | > 10000 nM | 0.855 | > 256 nM | 0.899 | > 2000 nM | 0.981 | > 1000 nM | 0.975 | > 2560 nM | 0.611 | 2690 nM | 0.976 | > 16000 nM | 0.982 | > 10000 nM | 0.982 | > 1020 nM | 0.979 | > 128 nM | 0.983 | > 2560 nM | 0.982 | > 20000 nM
D-283MED (medulloblastoma, adherent) | 0.937 | > 5120 nM | 0.799 | 5.38 nM | 0.863 | 7430 nM | 0.979 | > 256 nM | 0.972 | > 2000 nM | 0.99 | > 1000 nM | 0.854 | 1750 nM | 0.978 | > 20000 nM | 0.991 | > 16000 nM | 0.987 | > 10000 nM | 0.988 | > 1020 nM | 0.984 | > 128 nM | 0.989 | > 2560 nM | 0.991 | > 20000 nM
DG-75 (Burkitt lymphoma, suspension) | 0.066 | < 20 nM | 0.792 | 5.74 nM | 0.888 | > 10000 nM | 0.811 | 138 nM | 0.973 | > 2000 nM | 0.968 | > 1000 nM | 0.844 | 1870 nM | 0.476 | 1080 nM | 0.976 | > 16000 nM | 0.963 | > 10000 nM | 0.985 | > 1020 nM | 0.827 | 79.9 nM | 0.987 | > 2560 nM | 0.987 | > 20000 nM
DMS-79 (small cell lung carcinoma, suspension) | 0.068 | < 20 nM | 0.98 | > 12.5 nM | 0.892 | > 10000 nM | 0.86 | > 256 nM | 0.987 | > 2000 nM | 0.984 | > 1000 nM | 0.973 | > 2560 nM | 0.469 | 1010 nM | 0.961 | > 16000 nM | 0.984 | > 10000 nM | 0.986 | > 1020 nM | 0.978 | > 128 nM | 0.987 | > 2560 nM | 0.933 | > 20000 nM
DND-41 (T-cell leukaemia, suspension) | 0.447 | 234 nM | 0.968 | > 12.5 nM | 0.868 | 7340 nM | 0.62 | 32.8 nM | 0.99 | > 2000 nM | 0.989 | > 1000 nM | 0.591 | 274 nM | 0.18 | 160 nM | 0.975 | > 16000 nM | 0.989 | > 10000 nM | 0.96 | > 1020 nM | 0.667 | 21.9 nM | 0.947 | > 2560 nM | 0.954 | > 20000 nM
